Laboratory results taken from the supplement of paper PMC4967469.
The IC50 comes from the fitted curve, where viability falls to half of the control; fits outside the tested doses are given as limits. AUC sums up the same curve from the lowest dose to the 256-fold higher top dose; it is 1 without any effect and falls as sensitivity rises. Where the top dose is marked as inferred, it is not printed in the source and was worked back from the curve model. For some assays here: Drugs with an entry number were screened twice under separate entries, and the two screens often disagree.

Legend:
Assay in all cases: Viability of human cancer cell lines after 72 h of drug (GDSC screen)
MLN4924 = compound: NS(=O)(=O)OC[C@@H]1C[C@@H](n2ccc3c(N[C@H]4CCc5ccccc54)ncnc32)C[C@@H]1O [MLN4924]; conditions: top dose 1 µM; top dose inferred
Method: (§1)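 Human cancer cell lines in 384-well plates, medium with 10% serum, drug for 72 h over a 256-fold dose range (nine 2-fold or five 4-fold steps up to the top dose). Adherent lines were fixed and stained with the nucleic acid dye Syto60, suspension lines read with resazurin; signal relative to control wells, capped at 0 and 100%. One two-parameter sigmoid per drug and line, fitted in a mixed model over all curves with the slope shared within a line.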

BMN-673 = compound: Cn1ncnc1[C@H]1c2n[nH]c(=O)c3cc(F)cc(c23)N[C@@H]1c1ccc(F)cc1 [BMN-673]; conditions: top dose 10 µM; top dose inferred
Method: as §1

AZD6482 = compound: Cc1cc([C@@H](C)Nc2ccccc2C(=O)O)c2nc(N3CCOCC3)cc(=O)n2c1 [AZD6482]
Method: as §1

XMD11-85h = compound: COc1cc(C(=O)NC2CCN(C)CC2)ccc1Nc1ncc2c(n1)N(C1CCCC1)CCC(=O)N2C(C)C [XMD11-85h]; conditions: top dose 10 µM; top dose inferred
Method: as §1

[1] = top dose 5 µM, screen: GDSC drug entry 1066, top dose inferred
[2] = top dose 5.12 µM, screen: GDSC drug entry 156

| Cell Line | AUC (MLN4924) | IC50 (MLN4924) [µM] | AUC (BMN-673) | IC50 (BMN-673) [µM] | AUC (AZD6482; [1]) | IC50 (AZD6482; [1]) [µM] | AUC (AZD6482; [2]) | IC50 (AZD6482; [2]) [µM] | AUC (XMD11-85h) | IC50 (XMD11-85h) [µM] |
| --- | --- | --- | --- | --- | --- | --- | --- | --- | --- | --- |
| TK (B-cell lymphoma, suspension) | 0.988 | > 1 | 0.759 | 3.22 | 0.946 | > 5 | 0.938 | > 5.12 | 0.985 | > 10 |
| NALM-6 (B-cell leukaemia, suspension) | 0.92 | > 1 | 0.828 | 4.85 | 0.897 | 4.42 | 0.636 |  | 0.948 | > 10 |
| Capan-2 (pancreas, adherent) | 0.966 | > 1 | 0.894 | > 10 | 0.981 | > 5 | 0.954 | > 5.12 | 0.983 | > 10 |
| SLVL (B-cell lymphoma, suspension) | 0.939 | > 1 | 0.883 | > 10 | 0.937 | > 5 | 0.926 | > 5.12 | 0.923 | > 10 |
| ALL-SIL (T-cell leukaemia, suspension) | 0.837 | 0.54 | 0.728 | 2.49 | 0.93 | > 5 | 0.912 | > 5.12 | 0.901 | 9.8 |
| H2595 (mesothelioma, adherent) | 0.928 | > 1 | 0.885 | > 10 | 0.981 | > 5 | 0.917 | > 5.12 | 0.969 | > 10 |
| A253 (head and neck, adherent) | 0.881 | 0.999 | 0.921 | > 10 | 0.987 | > 5 | 0.956 | > 5.12 | 0.98 | > 10 |
| RERF-LC-MS (lung adenocarcinoma, adherent) | 0.851 | 0.797 | 0.842 | 7.3 | 0.787 | 2.23 | 0.987 | > 5.12 | 0.954 | > 10 |
| LS-123 (large intestine, adherent) | 0.953 | > 1 | 0.952 | > 10 | 0.908 | > 5 | 0.979 | > 5.12 | 0.951 | > 10 |
| AMO-1 (haematopoietic neoplasm, suspension) | 0.909 | > 1 | 0.966 | > 10 | 0.979 | > 5 | 0.962 | > 5.12 | 0.949 | > 10 |
| Hs-445 (Hodgkin lymphoma, suspension) | 0.813 | 0.492 | 0.572 | 0.97 |  |  | 0.878 | 4.53 | 0.977 | > 10 |
| EW-1 (Ewing sarcoma, semi-adherent) | 0.651 | 0.158 | 0.231 | 0.113 | 0.971 | > 5 | 0.906 | > 5.12 | 0.986 | > 10 |
| SW1710 (bladder, adherent) | 0.916 | > 1 | 0.854 | 8.31 | 0.671 | 0.949 | 0.581 | 0.538 | 0.933 | > 10 |
| D-542MG (glioma, adherent) | 0.972 | > 1 | 0.912 | > 10 | 0.931 | > 5 | 0.693 | 1.27 | 0.972 | > 10 |
| NCI-H1993 (lung adenocarcinoma, adherent) | 0.975 | > 1 | 0.938 | > 10 | 0.824 | 4.34 | 0.896 | > 5.12 | 0.978 | > 10 |
| OVCAR-3 (ovary, adherent) | 0.852 | 0.903 | 0.888 | > 10 | 0.777 | 2.23 | 0.57 | 0.506 | 0.966 | > 10 |
| IA-LM (large cell lung carcinoma, adherent) | 0.941 | > 1 | 0.93 | > 10 | 0.921 | > 5 | 0.962 | > 5.12 | 0.962 | > 10 |
| SK-LMS-1 (soft tissue, adherent) | 0.692 | 0.209 | 0.809 | 4.92 | 0.631 | 0.703 | 0.816 | 2.66 | 0.922 | > 10 |
| DND-41 (T-cell leukaemia, suspension) | 0.871 | 0.757 | 0.681 | 1.86 | 0.971 | > 5 | 0.95 | > 5.12 | 0.903 | > 10 |
| NCI-H1304 (small cell lung carcinoma, suspension) | 0.966 | > 1 | 0.981 | > 10 | 0.971 | > 5 | 0.958 | > 5.12 | 0.951 | > 10 |
| KELLY (neuroblastoma, adherent) | 0.699 | 0.214 | 0.414 | 0.372 | 0.974 | > 5 | 0.966 | > 5.12 | 0.983 | > 10 |
| CHSA8926 (chondrosarcoma, adherent) | 0.966 | > 1 | 0.937 | > 10 | 0.886 | > 5 | 0.879 | > 5.12 | 0.942 | > 10 |
| Hs-578-T (breast, adherent) | 0.865 | 0.979 | 0.907 | > 10 | 0.834 | 3.56 | 0.966 | > 5.12 | 0.981 | > 10 |
| MFE-319 (endometrium, adherent) | 0.987 | > 1 | 0.943 | > 10 | 0.901 | > 5 | 0.923 | > 5.12 | 0.965 | > 10 |
| EW-22 (Ewing sarcoma, adherent) | 0.761 | 0.342 | 0.102 | < 0.0391 | 0.955 | > 5 |  |  | 0.937 | > 10 |
